According to paper PMC4336329 (PLoS ONE, 2015):
Out of some 310,000 compounds screened, about 14,000 (4.5%) showed an effect of 50% or more. Effects have a minus sign here. This is one part of the list.

target: human ether-à-go-go-related gene (hERG) potassium channel (human, UniProt Q12809); assay: primary screen, population patch clamp on CHO cells stably expressing hERG
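Also: peak tail current of the secondary pulse compared with the same well before compound.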

Chain of human ether-à-go-go-related gene (hERG) potassium channel (Q12809 whole entry, looked up): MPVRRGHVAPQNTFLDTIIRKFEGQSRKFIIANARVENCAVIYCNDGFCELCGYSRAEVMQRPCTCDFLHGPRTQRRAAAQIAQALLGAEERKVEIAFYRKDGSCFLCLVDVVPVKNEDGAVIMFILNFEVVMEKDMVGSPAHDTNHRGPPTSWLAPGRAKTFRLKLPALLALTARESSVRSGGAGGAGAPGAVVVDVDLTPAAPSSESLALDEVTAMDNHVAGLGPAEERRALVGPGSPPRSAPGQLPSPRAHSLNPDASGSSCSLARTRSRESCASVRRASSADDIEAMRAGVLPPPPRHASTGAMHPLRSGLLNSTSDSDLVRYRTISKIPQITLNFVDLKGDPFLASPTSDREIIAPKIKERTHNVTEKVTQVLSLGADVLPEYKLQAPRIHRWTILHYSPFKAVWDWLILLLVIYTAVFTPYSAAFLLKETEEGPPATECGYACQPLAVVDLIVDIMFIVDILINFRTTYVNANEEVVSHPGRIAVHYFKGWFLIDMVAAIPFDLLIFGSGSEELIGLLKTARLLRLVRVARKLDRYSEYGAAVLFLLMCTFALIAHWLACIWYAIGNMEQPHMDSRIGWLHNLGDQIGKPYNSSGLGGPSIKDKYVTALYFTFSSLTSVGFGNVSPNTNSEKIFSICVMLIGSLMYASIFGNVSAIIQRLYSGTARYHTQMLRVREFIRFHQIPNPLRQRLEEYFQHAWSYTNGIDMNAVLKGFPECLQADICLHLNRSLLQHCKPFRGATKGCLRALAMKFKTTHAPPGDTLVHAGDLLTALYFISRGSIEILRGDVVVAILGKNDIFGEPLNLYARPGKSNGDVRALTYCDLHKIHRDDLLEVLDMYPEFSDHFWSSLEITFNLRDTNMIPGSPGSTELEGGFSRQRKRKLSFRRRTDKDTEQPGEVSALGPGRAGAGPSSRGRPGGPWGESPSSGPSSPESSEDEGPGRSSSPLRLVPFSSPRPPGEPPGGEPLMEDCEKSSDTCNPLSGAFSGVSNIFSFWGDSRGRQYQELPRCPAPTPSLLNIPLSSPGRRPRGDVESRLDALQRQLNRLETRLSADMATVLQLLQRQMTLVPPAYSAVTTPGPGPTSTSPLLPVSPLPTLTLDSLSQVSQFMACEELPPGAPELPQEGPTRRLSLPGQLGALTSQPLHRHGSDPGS

| SMILES | hERG current change (%, negative = inhibition) at 10uM |
| --- | --- |
| N#Cc1ccc(C(=O)Nc2cc(S(=O)(=O)N3CCCC3)ccc2OCC(F)(F)F)cc1 | -25.2% |
| Cc1c(N=Nc2c(O)n(-c3ccc(Br)cc3)c(=O)[nH]c2=O)c(=O)n(-c2ccccc2)n1C | 14.7% |
| Nc1ccc(C(=O)N2CCN(S(=O)(=O)c3ccc(Cl)s3)CC2)cc1[N+](=O)[O-] | -36.2% |
| O=C(NC1CCCCCC1)c1ccc(CN2CCOCC2)cc1 | 11.3% |
| O=C(CSc1ccc(-c2ccccc2)nn1)N1CCOCC1 | -4.41% |
| C/C(=N\NC(=O)CNc1cccc(Cl)c1C)C1CC1 | 6.52% |
| Cc1ccccc1N1CCN(CCN2C(=O)CC(=C3c4ccccc4-c4ccccc43)C2=O)CC1 | 6.43% |
| COc1ccc(N(C(=O)c2cnccn2)C(C(=O)NC2CCCCC2)c2ccccc2)cc1 (stereo not drawn) | -6.51% |
| O=C(COc1ccc2c3c(c(=O)oc2c1)CCC3)NC1CCN(Cc2ccccc2)CC1 | -24.9% |
| CC(=O)Nc1cc2cc(NS(=O)(=O)c3ccc(C)cc3)ccc2oc1=O | 14.9% |
| Cc1ccc(S(=O)(=O)NCC(c2ccco2)N2CCOCC2)cc1 (stereo not drawn) | -7.6% |
| O=C(CCCCCNC(=O)c1ccccc1Cl)N/N=C/c1ccco1 | 18.1% |
| Cc1onc(-c2c(Cl)cccc2Cl)c1C(=O)n1nnc2ccccc21 | -3.48% |
| COc1ccc(OC)c(NC(=O)CN(C)S(=O)(=O)c2ccc(Cl)cc2)c1 | -12.4% |
| O=C(CCN1C(=O)C2C3C=CC(C3)C2C1=O)NCCN1CCCc2ccccc21 (stereo not drawn) | -9.32% |
| CCCNC(=O)NC(=O)COc1c(F)c(F)cc(F)c1F | -7.17% |
| CCn1nc(C(=O)OCc2c(C)noc2C)c2ccccc2c1=O | -7.92% |
| O=C(CSc1nnc(NC(=O)c2ccccc2[N+](=O)[O-])s1)NCc1ccco1 | 0.0498% |
| COc1ccc(C2=NN(C(=O)c3cccs3)C(O)(C(F)(F)F)C2)cc1 (stereo not drawn) | 14.8% |
| Cc1cc(Cl)ccc1OC(C)C(=O)OCC(=O)Nc1ccc2[nH]c(=O)[nH]c2c1 (stereo not drawn) | -3.04% |
| CC1(C)Cc2ccccc2C(COc2ccccc2)=N1.Cl | 21.3% |
| Fc1ccc(NC(=S)N2CCN(C/C=C/c3ccccc3)CC2)c(F)c1 | -25.8% |

| SMILES | hERG current change (%, negative = inhibition) at 10uM |
| --- | --- |
| Cn1c(SCC(=O)N/N=C/C=C\c2ccco2)nc2ccccc21 | -50.6% |
| CN(CC(=O)Nc1ccccc1Br)C(=O)c1ccc(COc2ccccc2)cc1 | 9.54% |
| CCCC(C)C(=O)Nc1cc([N+](=O)[O-])ccc1Cl (stereo not drawn) | 7.26% |
| Cc1cc(=O)oc2cc(OCC(=O)NCCCn3ccnc3)ccc12 | 7.58% |
| C=C1CN(CC(=O)OC)S(=O)(=O)c2ccccc21 | 20.2% |
| Nc1ccc(S(=O)(=O)N2CCCc3ccccc32)cc1 | -12.1% |
| COc1cccc(C2=NOC(C(=O)NCc3ccccc3)C2)c1 (stereo not drawn) | -0.722% |
| CC(C)C[C@@H](CN=[N+]=[N-])N1CCN(C)CCC1=O | 14% |
| Cc1ccc(NC(=O)c2ccccc2OCC(=O)Nc2ccccc2F)cc1S(=O)(=O)N(C)C | 1.96% |
| c1ccc(N2CCN(c3cnccn3)CC2)nc1 | 2.29% |
| COC(=O)C1=C(C(=O)OC)N2C=CC=CC2(C)C(C(=O)OC)=C1C(=O)OC (stereo not drawn) | -5.49% |
| COc1ccc(CCNC(=O)CCCn2c(=O)[nH]c3cc(OC)c(OC)cc3c2=O)cc1OC | 2.91% |
| Cc1ccc(CN(Cc2ccccc2)C(=S)NCC(=O)N2CCC3(CC2)OCCO3)o1 | -38.3% |
| COc1ccc(Sc2nnc(Cc3ccccc3)c3ccccc23)cc1 | -18% |
| CCOc1ccc2oc(=O)cc(CN3CCN(Cc4ccccc4)CC3)c2c1 | -56.7% |
| O=C(CNc1ccccc1)NNC1=NCCC1 | -3.9% |
| COc1ccc(N(CC(=O)Nc2ccc3c(c2)OCCO3)S(=O)(=O)c2c(C)nn(C)c2C)cc1 | -9.16% |
| COc1cc(/C=C(/NC(=O)c2ccccc2)C(=O)Nc2ccc(O)cc2)c([N+](=O)[O-])cc1OC | 9.25% |
| Cn1ncc(Br)c1C(=O)NC1CCCC1 | 24.1% |
| COC(=O)C1=C(c2cccc(OC)c2OC)C[C@@H]2CC[C@H]1N2C(=O)N1CCCCC1 | 2.54% |
| O=C(CN1C(=O)c2cccc3cccc1c23)NCc1ccccn1 | 17.9% |
| CCNC(=O)c1cccc(NC(=O)C2CC(=O)N(CCc3ccccc3)C2)c1 (stereo not drawn) | 9.05% |

| SMILES | hERG current change (%, negative = inhibition) at 10uM |
| --- | --- |
| COc1ccc(C(=O)NC(=S)Nc2cccc(S(=O)(=O)N3CCOCC3)c2)cc1 | -5.04% |
| Cc1cccc(NC(=O)C2SC(=Nc3c(C)cccc3C)C(C(=O)N3CCOCC3)=C2N)c1 (stereo not drawn) | 0.733% |
| COc1cc(Nc2ncnc(N)n2)cc(OC)c1OC | 11% |
| CC(=O)OCC(=O)Nc1ccc(C(C)=O)cc1 | -1.86% |
| Cc1cccc(NC2=NCC(=O)N2CCc2ccccc2)c1 | -13.2% |
| O=C(O)/C=C/C(=O)N(Cc1ccc2c(c1)OCO2)C1CC(=O)N(CCc2ccccc2)C1=O (stereo not drawn) | 36.5% |
| Cc1sc2ncn(CC(=O)NCC3COc4ccccc4O3)c(=O)c2c1S(=O)(=O)N1CCCCC1 (stereo not drawn) | 14.5% |
| CCOc1ccccc1N1CCN(C(=O)C2=CC=CN3CCS(=O)(=O)N=C23)CC1 | -1.4% |
| NC(=O)CSc1ncnc2c1oc1ccccc12 | 10.4% |
| O=C(NCCCn1ccnc1)c1cccc(Cl)c1 | 0.459% |
| COc1ccc(NC(=O)c2c(C(F)(F)F)nn(C)c2SCc2ccccc2)cc1 | -17.2% |
| O=C1c2ccccc2C(=O)N1CSc1nnc(Nc2ccccc2F)s1 | 2.69% |
| CCc1c(C)[nH]n(-c2nc(-c3cccc([N+](=O)[O-])c3)cs2)c1=O | 11.7% |
| O=C(O)c1ccccc1NC(=O)C1C2CCC(O2)C1C(=O)O (stereo not drawn) | -1.25% |
| CCc1nc2ccc(C(=O)N(C)CC(=O)Nc3ccc(Cl)c(C(F)(F)F)c3)cc2nc1CC | -7.12% |
| COc1ccc(-n2c(C)nn(C)c2=O)cc1 | 4.99% |
| Cc1nc2cc(C(=O)N3c4ccccc4CC3C)ccc2s1 (stereo not drawn) | -2.85% |
| Cc1cccc2cc(CN(C(=S)NCC(C)C)C3CCCC3)c(=O)[nH]c12 | -6.39% |
| Fc1ccc(N2CN(Cc3cccnc3)CNC2=S)cc1 | 10.7% |
| COC(=O)C(C)(C)ONC(=O)Nc1ccccc1 | 1.66% |
| CCOc1cc(NC(=S)NCc2ccco2)c(OCC)cc1NC(=O)c1ccco1 | -5.5% |
| CC(=O)NC1(c2cccc(F)c2)CCN(CC(=O)NC(C)C)CC1 | 9.55% |

| SMILES | hERG current change (%, negative = inhibition) at 10uM |
| --- | --- |
| NC(=O)C1CC(=O)N(CCc2ccc(F)cc2)C1 (stereo not drawn) | 22.6% |
| CSc1ccccc1NC(=O)CSc1n[nH]c(N)n1 | -2.03% |
| COc1cc(/C=C/c2nc3ccccc3c(=O)[nH]2)cc(OC)c1OC | 8.11% |
| CCOC(=O)NC(=O)CSc1nc2ccc([N+](=O)[O-])cc2[nH]1 | 9.36% |
| COc1ccc(C)c2sc(=NC(=O)c3ccccc3)n(C)c12 | 27.7% |
| C/C(=N\NC(=O)c1nn(C)c(C)c1Br)c1ccc(NC(=O)C2CCCC2)cc1 | 13.8% |
| COc1ccc2c(Cl)c(C(=O)NCCCn3ccnc3)sc2c1 | -4.86% |
| O=C(c1ccc(Cl)nc1)N1CCN(S(=O)(=O)c2ccc(Cl)cc2)CC1 | -17.3% |
| CCCN1CCN(C(=O)CCn2c(=O)c3cccn3c3cccnc32)CC1 | -19.5% |
| COc1ccccc1NC(=O)CN1C(=O)COc2ccc(C)cc21 | 3.39% |
| CCc1[nH]nc(C(=O)N/N=C/c2ccncc2)c1C | -43.9% |
| CC(NCC(=O)Nc1cc(S(=O)(=O)N2CCOCC2)ccc1Cl)c1ccc(Cl)cc1Cl (stereo not drawn) | 4.67% |
| Cc1cc(NC(=O)CN2C(=O)S/C(=C\c3ccccc3)C2=O)no1 | -3.93% |
| Cc1ccccc1OCC(=O)Nc1cnn(CCCC(=O)O)c1 | 16.6% |
| O=C(NNC(=O)c1cc(Br)ccc1Cl)c1csc(N2CCOCC2)n1 | 4.26% |
| CCOc1ccc(C2/C(=C(\O)c3ccc4c(c3)OCCO4)C(=O)C(=O)N2Cc2cccnc2)cc1OCC (stereo not drawn) | 16.9% |
| CC(=O)Nc1ccc(C(=O)Nc2cccc(S(=O)(=O)NC3=NCCC3)c2)cc1 | 4.95% |
| COc1cccc(CNC(=O)CCNS(=O)(=O)c2ccc3[nH]c(=O)oc3c2)c1 | 12.3% |
| COc1ccc(OC)c(N(C(=O)c2ccco2)C(C(=O)NC2CCCC2)c2ccc(N3CCOCC3)cc2)c1 (stereo not drawn) | -6.21% |
| O=C1CC(N2CCC(c3nc4ccccc4o3)CC2)C(=O)N1c1cc(Cl)cc(Cl)c1 (stereo not drawn) | -15.4% |
| Cn1c(SCC(=O)N/N=C/C=C/c2ccco2)nc2ccccc21 | -42.9% |
